Measurements: a collection of fitness landscapes (doi:10.1126/science.1257360)
The other results are listed elsewhere or left out.

B1: PhoQ; a variant is named by its letters at X, in order, P23837 (parent)
chain: MKKLLRLFFPLSLRVRFLLATAAVVLVLSLAYGMVALIGYSVSFDKTTFRLLRGESNLFYTLAKWENNKLHVELPENIDKQSPTMTLIYDENGQLLWAQRDVPWLMKMIQPDWLKSNGFHEIEADVNDTSLLLSGDHSIQQQLQEVREDDDDAEMTHSVAVNVYPATSRMPKLTIVVVDTIPVELKSSYMVWSWFIYVLSANLLLVIPLLWVAAWWSLRPIEALAKEVRELEEHNRELLNPATTRELTSLVRNLNRLLKSERERYDKYRTTLTDLTHSLKTPLXXLQXXLRSLRSEKMSVSDAEPVMLEQISRISQQIGYYLHRASMRGGTLLSRELHPVAPLLDNLTSALNKVYQRKGVNISLDISPEISFVGEQNDFVEVMGNVLDNACKYCLEFVEISARQTDEHLYIVVEDDGPGIPLSKREVIFDRGQRVDTLRPGQGVGLAVAREITEQYEGKIVAGESMLGGARMEVIFGRQHSAPKDE

Variants of: B1
Test: enrichment ratio after two sorts for PhoP signalling (ratio (wild type AVST 3.29)); higher = more functional
Conditions: with PhoP (E. coli)

Row | Variant | enrichment ratio
1 | DIYC | ≤ 0.25
2 | WVKL | ≤ 0.25
3 | NPSR | ≤ 0.25
4 | KACA | ≤ 0.25
5 | KFSI | ≤ 0.25
6 | PDCP | ≤ 0.25
7 | SNPS | ≤ 0.25
8 | RPCS | ≤ 0.25
9 | RCQD | ≤ 0.25
10 | HQPF | ≤ 0.25
11 | VEQC | 4.21
12 | YTSR | ≤ 0.25
13 | PSMF | ≤ 0.25
14 | HGCW | ≤ 0.25
15 | QDWC | ≤ 0.25
16 | FKKK | ≤ 0.25
17 | TSQL | 14
18 | IKAY | ≤ 0.25
19 | FPPE | ≤ 0.25
20 | WDWF | ≤ 0.25
21 | AWNS | ≤ 0.25
22 | TMKM | ≤ 0.25
23 | YALW | ≤ 0.25
24 | KHDT | ≤ 0.25
25 | PMRV | ≤ 0.25
26 | ETDA | ≤ 0.25

Row | Variant | enrichment ratio
27 | DLWN | ≤ 0.25
28 | QNKF | ≤ 0.25
29 | AHMI | ≤ 0.25
30 | ATHN | ≤ 0.25
31 | AMAF | 9.64
32 | VGNR | ≤ 0.25
33 | NNYT | ≤ 0.25
34 | AIFG | ≤ 0.25
35 | GTGK | ≤ 0.25
36 | NQIP | ≤ 0.25
37 | QLAL | 1.62
38 | TEAA | 2.61
39 | WYFQ | ≤ 0.25
40 | TKMG | 7.64
41 | YQFK | ≤ 0.25
42 | WYGG | 0.907
43 | DTEM | ≤ 0.25
44 | HITG | ≤ 0.25
45 | IVTV | ≤ 0.25
46 | YFRK | ≤ 0.25
47 | FNSK | ≤ 0.25
48 | PRQY | ≤ 0.25
49 | VLYW | ≤ 0.25
50 | MPYG | ≤ 0.25
51 | MGHN | ≤ 0.25
52 | MELP | ≤ 0.25

Row | Variant | enrichment ratio
53 | PHMV | ≤ 0.25
54 | AFTY | ≤ 0.25
55 | QGDF | ≤ 0.25
56 | YVLP | ≤ 0.25
57 | ARET | ≤ 0.25
58 | KTCS | ≤ 0.25
59 | FTGR | ≤ 0.25
60 | TESV | 26.1
61 | GQIP | ≤ 0.25
62 | TKHE | ≤ 0.25
63 | TFLK | ≤ 0.25
64 | NEIG | ≤ 0.25
65 | HAVW | ≤ 0.25
66 | TSRM | ≤ 0.25
67 | ITSP | ≤ 0.25
68 | KVKV | ≤ 0.25
69 | TQKW | ≤ 0.25
70 | TGVE | ≤ 0.25
71 | VRNN | ≤ 0.25
72 | LWAN | ≤ 0.25
73 | PNET | ≤ 0.25
74 | YLKW | ≤ 0.25
75 | LCCA | ≤ 0.25
76 | GWVD | ≤ 0.25
77 | GYDH | ≤ 0.25
